Where a name gives a salt, the structure may show the parent alone. ± gives the standard deviation of the averaged measurements. Over roughly 3,200 compounds, “nuclei count (viability) relative to DMSO” has its median near 99; the lowest 2% begin near 16. This is one part of the list.
Test system: U2OS
Assay: nuclei count (viability) relative to DMSO (% of DMSO); higher = more viable cells
Conditions: 10 µM; 24 h
Description: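 Primary image-based screen in U2OS cells: compounds at 10 uM for 24 h, then a 1 h o-propargyl-puromycin (OPP) pulse, click labelling, and high-throughput microscopy. Mean cytoplasmic OPP intensity and nuclei count were normalised to DMSO wells within each plate (DMSO = 100) and averaged over triplicate plates.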

Row | SMILES | nuclei count
1 | COc1ccc2cc3[n+](cc2c1OC)CCc1cc2c(cc1-3)OCO2 [Berberine HCl] | 98.6
2 | COc1cc2c(cc1Cc1cccc(Cl)c1F)c(=O)c(C(=O)O)cn2[C@H](CO)C(C)C [Elvitegravir (GS-9137)] | 96.3
3 | Nc1ncnc2c1ncn2[C@@H]1O[C@H](CO)C[C@H]1O [Cordycepin] | 100
4 | CCCC[C@@H](C=O)NC(=O)OC(C)(C)C | 106
5 | Brc1ccc(C2CN3CCSC3=N2)cc1 [L-p-Bromotetramisole oxalate] | 98.8
6 | c1cc(CN2CCCCC2)cc(OCCCNc2nc3ccccc3s2)c1 [Zolantidine dimaleate] | 105
7 | CCc1cc2c(cc1CC)CC(NC[C@H](O)c1ccc(O)c3[nH]c(=O)ccc13)C2 [Indacaterol Maleate] | 95.9
8 | CNCC(O)c1ccc(O)c(O)c1 (stereo not given) [Racepinephrine HCl] | 96.4
9 | CCOC1O[C@H]([C@@H](COCc2ccccc2)OCc2ccccc2)[C@H](OCc2ccccc2)[C@H]1O (stereo not given in full) [Tribenoside] | 90.5
10 | Cc1c(-c2ccc(O)cc2)n(Cc2ccc(OCCN3CCCCCC3)cc2)c2ccc(O)cc12 [Bazedoxifene HCl] | 82.9
11 | CCOC(=O)[C@@H](C)Oc1cccc2c(=O)n(CC(=O)Nc3ccc4c(c3)OCCO4)ccc12 | 108
12 | CC[C@H](CO)Nc1nc(Nc2cccc(-c3ccccn3)c2)c2ncn(C(C)C)c2n1 [(R)-DRF053 dihydrochloride] | 76.2
13 | CC(=O)Nc1c(I)c(C(=O)N[C@H]2C(O)O[C@H](CO)[C@@H](O)[C@@H]2O)c(I)c(N(C)C(C)=O)c1I (stereo not given in full) [Metrizamide] | 105
14 | Cc1ccccc1N1CCN(S(=O)(=O)C[C@]23CC[C@H](C[C@@H]2NC(=O)[C@@H](N)CCS(C)(=O)=O)C3(C)C)CC1 [L-368,899 hydrochloride] | 108
15 | O=C(O)c1ccnc(C(=O)O)c1 [2,4-Pyridinedicarboxylic Acid] | 97.2
16 | NC[C@H](O)c1ccc(O)c(O)c1 [Noradrenaline bitartrate monohydrate (Levophed)] | 105
17 | CCN(CC)CCNC(=O)c1ccc(N)cc1 [Procainamide hydrochloride] | 101
18 | CN[C@H]1CC[C@@H](c2ccc(Cl)c(Cl)c2)c2ccccc21 [Sertraline hydrochloride] | 84.1
19 | CN[C@H]1CC[C@@H](c2ccc(Cl)c(Cl)c2)c2ccccc21 [Sertraline] | 101
20 | CN[C@H]1CC[C@@H](c2ccc(Cl)c(Cl)c2)c2ccccc21 [Sertraline HCl] | 88.6
21 | C[C@@H]1CCC[C@H](C)N1NC(=O)c1ccc(Cl)c(S(N)(=O)=O)c1 [Clopamide] | 110
22 | CC[C@H]1OC(=O)[C@H](C)[C@@H](O[C@H]2C[C@@](C)(OC)[C@@H](O)[C@H](C)O2)[C@H](C)[C@@H](O[C@@H]2O[C@H](C)C[C@H](N(C)C)[C@H]2O)[C@](C)(O)C[C@@H](C)CN(C)[C@H](C)[C@@H](O)[C@]1(C)O [Azithromycin (Zithromax)] | 90.6
23 | CC[C@H]1OC(=O)[C@H](C)[C@@H](O[C@H]2C[C@@](C)(OC)[C@@H](O)[C@H](C)O2)[C@H](C)[C@@H](O[C@@H]2O[C@H](C)C[C@H](N(C)C)[C@H]2O)[C@](C)(O)C[C@@H](C)CN(C)[C@H](C)[C@@H](O)[C@]1(C)O [Azithromycin] | 94.3

Row | SMILES | nuclei count
24 | N#Cc1c(N(CC(=O)O)CC(=O)O)sc(C(=O)O)c1CC(=O)O [Strontium ranelate (Protelos)] | 101
25 | CCn1c(N)c(C(=O)NC)c(=O)c2ccc(C#CC(C)(O)COC)nc21 (stereo not given) | 96.5 ± 3.1
26 | CCOC(=O)C1=C(C)NC(=S)NC1c1cccc(O)c1 (stereo not given) [Monastrol] | 79.7
27 | OCCn1cc(-c2ccc3c(c2)CC/C3=N\O)c(-c2ccncc2)n1 | 102
28 | CC(C)[N+]1(C)[C@@H]2CC[C@H]1C[C@@H](OC(=O)C(CO)c1ccccc1)C2 (stereo not given in full) [Ipratropium bromide] | 101
29 | Cc1ccc(-c2cc(C(F)(F)F)nn2-c2ccc(S(N)(=O)=O)cc2)cc1 [Celecoxib] | 98.2 ± 3.7
30 | Nc1ccc(S(=O)(=O)Nc2nccs2)cc1 [Sulfathiazole] | 98.1
31 | O=C(O)c1cccc(-c2noc(-c3ccccc3F)n2)c1 [PTC124 (Ataluren)] | 94.7
32 | CC(CNC1CCCCC1)OC(=O)c1ccccc1 (stereo not given) [Hexylcaine hydrochloride] | 100
33 | CO/N=C(\C(=O)N[C@@H]1C(=O)N2C(C(=O)O)=C(COC(C)=O)CS[C@H]12)c1csc(N)n1 [Cefotaxime sodium salt] | 71.3
34 | COC1CCC(C(=O)c2ccc3nc4c(cc3c2)CCCO4)CC1 (stereo not given) | 96.5
35 | C=C[C@](C)(O)CC[C@@H]1[C@@]2(C)CCCC(C)(C)[C@@H]2CC[C@@]1(C)O [Sclareol] | 102
36 | C[C@]12CC[C@@H]3c4ccc(O)cc4C[C@@H](CCCCCCCCC[S+]([O-])CCCC(F)(F)C(F)(F)F)[C@H]3[C@@H]1CC[C@@H]2O (stereo not given in full) [Fulvestrant] | 99
37 | C[C@]12CC[C@@H]3c4ccc(O)cc4C[C@@H](CCCCCCCCC[S+]([O-])CCCC(F)(F)C(F)(F)F)[C@H]3[C@@H]1CC[C@@H]2O (stereo not given in full) | 101
38 | C[C@]12CC[C@@H]3c4ccc(O)cc4C[C@@H](CCCCCCCCC[S+]([O-])CCCC(F)(F)C(F)(F)F)[C@H]3[C@@H]1CC[C@@H]2O (stereo not given in full) [Fulvestrant (Faslodex)] | 99.6
39 | NC(=O)N/N=C/c1ccc(Oc2ccc(F)cc2)cc1 | 99.5
40 | Clc1ccc(C2(c3ccc(-c4cn[nH]c4)cc3)CCNCC2)cc1 | 39
41 | COc1cc(CNC(=O)CCCC/C=C/C(C)C)ccc1O [Capsaicin] | 101 ± 3
42 | COc1cc(CNC(=O)CCCC/C=C/C(C)C)ccc1O [(E)-Capsaicin] | 100
43 | CCS(=O)(=O)c1cccc(-c2cc(C(=O)NC3CCN(C)CC3)c(C)c3[nH]c4ncc(C)cc4c23)c1 | 17.8
44 | C1CCC(N=C(NC23CC4CC(CC(C4)C2)C3)N2CCOCC2)CC1 | 93.4
45 | COC(=O)[C@H](Cc1ccccc1)NC(=O)[C@@H](N)CC(=O)O [Aspartame] | 108

— the supplement of paper PMC8183993
